Structures are written as SMILES.

The test system of this assay is Plasmopara viticola (PLASVI). In words: whole plant or invertebrate. Particulars: 24 h, read-out: T4 PLASVI in vivo 1 Day Protectant, control of fungal infection. An excerpt:
A blank space indicates not tested.
With `C=C(C)CO[C@H]1[C@H](C)OC(=O)[C@@H](NC(=O)c2nccc(OC)c2OCOC(C)=O)COC(=O)[C@@H]1Cc1ccccc1` [Compound 53], the pest or weed control at 100 ppm lay in the range of 25 to 74%.

For `COCCC(=O)OCOc1c(OC)ccnc1C(=O)N[C@H]1COC(=O)[C@H](Cc2ccccc2)[C@@H](OCC(C)C)[C@H](C)OC1=O` [Compound 54], the pest or weed control at 100 ppm is 75 to 100%.

With `CCCO[C@H]1[C@H](C)OC(=O)[C@@H](NC(=O)c2nccc(OC)c2OCOC(=O)CCOC)COC(=O)[C@@H]1Cc1ccccc1` [Compound 55], the pest or weed control at 100 ppm lay within 25 to 74%.

For the compound `COc1ccnc(C(=O)N[C@H]2COC(=O)[C@H](Cc3ccccc3)[C@@H](OCC(C)C)[C@H](C)OC2=O)c1OCOC(=O)C1CC1` [Compound 56], the pest or weed control at 100 ppm fell in the range of 25 to 74%.

On to `COCCOC(=O)OCOc1c(OC)ccnc1C(=O)N[C@H]1COC(=O)[C@H](Cc2ccccc2)[C@@H](OCC(C)C)[C@H](C)OC1=O` [Compound 57], for which the pest or weed control at 100 ppm was 25 to 74%.

`COCC(=O)OCOc1c(OC)ccnc1C(=O)N[C@H]1COC(=O)[C@H](Cc2ccccc2)[C@@H](OCC(C)C)[C@H](C)OC1=O` [Compound 58]: the pest or weed control at 100 ppm is 25 to 74%.

As for `CCOCC(=O)OCOc1c(OC)ccnc1C(=O)N[C@H]1COC(=O)[C@H](Cc2ccccc2)[C@@H](OCC(C)C)[C@H](C)OC1=O` [Compound 59], the pest or weed control at 100 ppm fell in the range of 25 to 74%.

As to `CCCO[C@H]1[C@H](C)OC(=O)[C@@H](NC(=O)c2nccc(OC)c2OCOC(=O)COCC)COC(=O)[C@@H]1Cc1ccccc1` [Compound 60], the pest or weed control at 100 ppm is 25 to 74%.

In the case of `COc1ccnc(C(=O)N[C@H]2COC(=O)[C@H](Cc3ccccc3)[C@@H](OCC(C)C)[C@H](C)OC2=O)c1OCOC(=O)C1CCCC1` [Compound 61], the pest or weed control at 100 ppm was in the range of 25 to 74%.

On to `CCCO[C@H]1[C@H](C)OC(=O)[C@@H](NC(=O)c2nccc(OC)c2OCOC(=O)C2CCCC2)COC(=O)[C@@H]1Cc1ccccc1` [Compound 62], for which the pest or weed control at 100 ppm was below 25%.

For the compound `CCCC(=O)OCOc1c(OC)ccnc1C(=O)N[C@H]1COC(=O)[C@H](Cc2ccccc2)[C@@H](OCC(C)C)[C@H](C)OC1=O` [Compound 63], the pest or weed control at 100 ppm fell in the range of 75 to 100%.

For the compound `CCCO[C@H]1[C@H](C)OC(=O)[C@@H](NC(=O)c2nccc(OC)c2OCOC(=O)CCC)COC(=O)[C@@H]1Cc1ccccc1` [Compound 64], the pest or weed control at 100 ppm lay in the range of 75 to 100%.

For the compound `COc1ccnc(C(=O)N[C@H]2COC(=O)[C@H](Cc3ccccc3)[C@@H](OCC(C)C)[C@H](C)OC2=O)c1OCOCC(C)C` [Compound 65], the pest or weed control at 100 ppm is below 25%.

`COCCOC(C)C(=O)OCOc1c(OC)ccnc1C(=O)N[C@H]1COC(=O)[C@H](Cc2ccccc2)[C@@H](OC(=O)C(C)C)[C@H](C)OC1=O` (stereo partly shown) [Compound 66]: the pest or weed control at 100 ppm was below 25%.

As for `COc1ccnc(C(=O)N[C@H]2COC(=O)[C@H](Cc3ccccc3)[C@@H](OC(=O)C(C)C)[C@H](C)OC2=O)c1OCOC(=O)C(C)OC` (stereo partly shown) [Compound 67], the pest or weed control at 100 ppm is below 25%.

Consider `CCOC(C)C(=O)OCOc1c(OC)ccnc1C(=O)N[C@H]1COC(=O)[C@H](Cc2ccccc2)[C@@H](OC(=O)C(C)C)[C@H](C)OC1=O` (stereo partly shown) [Compound 68], for which the pest or weed control at 100 ppm is below 25%.

Turning to `CCCOC(C)C(=O)OCOc1c(OC)ccnc1C(=O)N[C@H]1COC(=O)[C@H](Cc2ccccc2)[C@@H](OC(=O)C(C)C)[C@H](C)OC1=O` (stereo partly shown) [Compound 69], the pest or weed control at 100 ppm is below 25%.

Consider `COc1ccnc(C(=O)N[C@H]2COC(=O)[C@H](Cc3ccccc3)[C@@H](OC(=O)C(C)C)[C@H](C)OC2=O)c1OCOC(=O)COCC(F)(F)F` [Compound 70], for which the pest or weed control at 100 ppm was below 25%.

`CCOCC(=O)OCOc1c(OC)ccnc1C(=O)N[C@H]1COC(=O)[C@H](Cc2ccccc2)[C@@H](OCSC)[C@H](C)OC1=O` [Compound 72]: the pest or weed control at 100 ppm was below 25%.

On to `COc1ccnc(C(=O)N[C@H]2COC(=O)[C@H](Cc3ccccc3)[C@@H](OCSC)[C@H](C)OC2=O)c1OCOC(=O)C1CCCC1` [Compound 73], for which the pest or weed control at 100 ppm was below 25%.

As for `COCCOCC(=O)OCOc1c(OC)ccnc1C(=O)N[C@H]1COC(=O)[C@H](Cc2ccccc2)[C@@H](OCSC)[C@H](C)OC1=O` [Compound 74], the pest or weed control at 100 ppm is below 25%.

As for `COCCOCCOCC(=O)OCOc1c(OC)ccnc1C(=O)N[C@H]1COC(=O)[C@H](Cc2ccccc2)[C@@H](OC(=O)C(C)C)[C@H](C)OC1=O` [Compound 75], the pest or weed control at 100 ppm was 25 to 74%.

For the origin of these results see patent publication US6861390B2, “Derivatives of UK-2A” (priority 2001, dated 2005).
